# ± gives the standard deviation of the averaged measurements. The full ranking holds about 33,000 sequences; the median of “E-score (dimensionless, -0.5 to 0.5)” is about -0.046, and the highest 2% start at about 0.36. The list shows a part of the results.
# System: T1, SpTbr T-box DNA-binding domain (GST fusion)
# T1 sequence: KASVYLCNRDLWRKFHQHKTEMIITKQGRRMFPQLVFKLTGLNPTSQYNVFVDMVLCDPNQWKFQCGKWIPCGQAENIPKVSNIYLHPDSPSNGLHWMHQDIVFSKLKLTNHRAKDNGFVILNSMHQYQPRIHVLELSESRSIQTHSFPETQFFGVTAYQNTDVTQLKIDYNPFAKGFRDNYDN
# Experiment: PBM E-score of 8-mer (E-score (dimensionless, -0.5 to 0.5)); Tbr is Tbrain of the sea star Patiria miniata (Pm) or the sea urchin Strongylocentrotus purpuratus (Sp); higher = stronger binding preference; most listed sequences are background and not binding sites
# Conditions: the construct has about 5 more residues each side
# Outline: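 Primer extension turned Universal Agilent oligonucleotide arrays double-stranded. They were incubated with 200 nM protein in PBS (pH 7.5); the protein was a GST-fused Tbr T-box DNA-binding domain expressed in BL21 E. coli at 20 °C and purified on glutathione. Every ungapped 8-mer was scored from the scanned, quantified probe intensities, and the Universal PBM Analysis Suite gave each an enrichment E-score averaged over duplicate arrays.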
row,Sequence,PBM E-score of 8-mer
1,CATCACTC,0.174 ± 0.013
2,ACACGAAC,0.0531 ± 0.046
3,CGTTTCAC,0.0842 ± 0.04
4,CACTAACA,0.317 ± 0.0051
5,ATCGTCAT,-0.00478 ± 0.05
6,CCCGTACG,-0.225 ± 0.054
7,ACGACTGG,0.0652 ± 0.014
8,CCTGCCTC,0.0708 ± 0.019
9,CCTTCAAC,-0.0636 ± 0.076
10,CGGGGCAA,-0.153 ± 0.13
11,AATTTCCT,-0.0532 ± 0.12
12,AGACTATA,0.0119 ± 0.036
13,CAGGATCC,-0.233 ± 0.036
14,CACGGACG,-0.0275 ± 0.00073
15,CGCTTGCC,0.0884 ± 0.049
16,TTAGAGAA,-0.0826 ± 0.021
17,AGTAAACC,-0.208 ± 0.018
18,CGACGTCA,0.134 ± 0.071
19,CAATTAAA,-0.14 ± 0.11
20,GGGAGGAC,-0.319 ± 0.065
21,CGGACACA,0.106 ± 0.034
22,ACCGAAGT,0.0496 ± 0.038

row,Sequence,PBM E-score of 8-mer
1,CCCTCAGA,-0.103 ± 0.011
2,ATGCCTCC,-0.337 ± 0.019
3,AATAGTCC,-0.187 ± 0.0099
4,GAACCCCC,-0.0164 ± 0.036
5,GATCGGAC,-0.287 ± 0.013
6,ATATGCAC,-0.106 ± 0.034
7,AGGTGGTC,-0.117 ± 0.11
8,GTTACCCA,0.0592 ± 0.014
9,ATCGTTGG,0.0428 ± 0.0038
10,AAGTATCA,0.0637 ± 0.013
11,AAGATTAC,-0.136 ± 0.048
12,ACCTGAGG,0.146 ± 0.079
13,GCGATAGA,0.132 ± 0.012
14,ATATAGCA,0.0526 ± 0.037
15,ACACGCGG,0.228 ± 0.068
16,GCTACACC,0.162 ± 0.0049
17,CAAACCAA,-0.169 ± 0.062
18,ACATGTAG,-0.101 ± 0.021
19,GCCTGGAA,-0.285 ± 0.0083
20,CAACACTG,0.27 ± 0.056
21,CGCTACCC,0.0729 ± 0.073
22,AAACTGCC,0.00444 ± 0.0014

row,Sequence,PBM E-score of 8-mer
1,CGTTCAGA,-0.25 ± 0.035
2,AGTACAAA,-0.1 ± 0.079
3,CGGCGATA,0.094 ± 0.028
4,CGATAACA,0.289 ± 0.0068
5,ATGATGCA,0.0765 ± 0.045
6,ATTGCATA,-0.133 ± 0.057
7,CCGCAGAG,-0.243 ± 0.021
8,AACACGAG,0.123 ± 0.015
9,AGCTAACC,-0.324 ± 0.015
10,ACTGATAT,0.00884 ± 0.022
11,ACACAAAT,-0.0579 ± 0.0065
12,AAGCATGG,-0.143 ± 0.037
13,AGAAGCCA,-0.209 ± 0.069
14,ATGAGGAG,-0.117 ± 0.007
15,CCCGTCAC,0.344 ± 0.013
16,ATCGATGC,-0.0678 ± 0.067
17,GACGATAA,0.0937 ± 0.083
18,CCGACTAG,0.0418 ± 0.044
19,AAATTTAT,-0.146 ± 0.076
20,CTTAATGA,-0.1145 ± 0.00067
21,AGCGGCAT,-0.0852 ± 0.094
22,GTCCAGGA,-0.101 ± 0.056

row,Sequence,PBM E-score of 8-mer
1,GCATTTCC,-0.0411 ± 0.027
2,TTCACCAA,-0.0676 ± 0.055
3,AGTATCAC,0.159 ± 0.034
4,GATCTTCC,-0.162 ± 0.04
5,AATCACGG,0.0247 ± 0.037
6,GTCGTACA,-0.218 ± 0.024
7,ATGCGGAA,-0.154 ± 0.043
8,CCACACGG,0.0912 ± 0.023
9,AACACTAC,0.212 ± 0.0039
10,CGGCACAG,0.0946 ± 0.029
11,GAGATTTA,-0.0919 ± 0.039
12,AGAATCGC,0.165 ± 0.045
13,CACTATGC,0.138 ± 0.05
14,CCGCGAAA,0.32 ± 0.025
15,AGCCGTGC,-0.124 ± 0.041
16,ACTTAATA,0.0193 ± 0.093
17,CAAAGCTA,-0.0638 ± 0.037
18,ACGCCAAA,0.145 ± 0.023
19,GGATTGAC,0.11 ± 0.019
20,ATACCGGC,-0.214 ± 0.022
